{
  "source": "PubChem BioAssay AID1347417",
  "about": "(National Center for Advancing Translational Sciences (NCATS), 2020)",
  "note": "About 5,300 (4.4%) of roughly 120,000 compounds were called active. The inconclusive results got no clear call from the source; some entries with a clear call stand among them for comparison. The call rests on the fitted dose curve; in most records, active means well fitted inhibition curve with a large enough effect; inconclusive means small, poorly fitted or top-dose-only effect; inactive means no such curve, though single readings can be large or run the other way. Potencies of inconclusive entries are doubtful fits and often do not repeat. Potency means the concentration at half of the fitted maximal effect; tags describe the fitted curve by direction and shape.",
  "data": [
    {"assay": "qHTS Primary assay for Inhibitors of Plasmodium falciparum Dd2 growth in vitro; further: nearly all actives have a fitted effect of over 65% in size;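 on activity, negative = inhibition: plate controls were DMSO vehicle for no effect and reference drug for full effect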", "conditions": "P. falciparum Dd2 growth, SYBR Green, 72 h; activity, negative = inhibition: at 28.9 µM (top of the series) unless noted; series mostly up to 28.9 µM", "how_it_was_run": "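Readout: SYBR Green fluorescence, 485 nm excitation, 535 nm emission, after ~16 h lysis at 37C. Before that, Dd2-infected red cells (2.5% hematocrit) grew 72 h with compound, 29 uM top final concentration.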", "values": [
      {"smiles": "CCOc1ccccc1C1NC(=O)N(CC(=O)Nc2ccc(C)cc2)C2=C1C(=O)OC2", "note": "(stereo not given)", "Potency": "inactive"},
      {"smiles": "Cc1ccc(S(=O)(=O)c2cn(CC(=O)Nc3ccc4c(c3)OCO4)c3ccccc3c2=O)cc1C", "Potency": "inconclusive: 20 µM [inhibitor, single point]"},
      {"smiles": "Cc1cc(C)n(CCC(=O)NCC2Cn3cccc3C(=O)N2Cc2ccccc2)n1", "note": "(stereo not given)", "Potency": "inconclusive: 3.98 µM [inhibitor, single point]"},
      {"smiles": "CN(Cc1cccc(-c2nn[nH]n2)c1)Cc1cn(-c2ccccc2)nn1", "Potency": "inconclusive: 7.08 µM [inhibitor, partial curve, poor fit]"},
      {"smiles": "CC(C)NC(=O)c1nc2sccn2c1Br", "Potency": "inactive"},
      {"smiles": "O=C(NC[C@H]1O[C@H](Cc2cc(-c3ccc(F)cc3)on2)CC[C@@H]1O)c1ccccc1F", "Potency": "inconclusive: 12.6 µM [inhibitor, single point]"},
      {"smiles": "COc1ccc2cc(CNc3ccc(C)cc3)c(=O)n(CC(=O)Nc3cccc(C(F)(F)F)c3)c2c1", "Potency": "inconclusive: 17.8 µM [inhibitor, single point]"},
      {"smiles": "COC(=O)c1ccc2nc(CO[C@H]3CN(C(=O)c4ccccc4)C[C@H]3F)[nH]c2c1", "Potency": "inconclusive: 10 µM [inhibitor, partial curve]"},
      {"smiles": "O=c1c2cccnc2n(Cc2cccc(F)c2)c(=O)n1Cc1ccccc1Cl", "Potency": "active: 12.6 µM"},
      {"smiles": "CC1CCN(C(=O)[C@@H](C)C2CC[C@@]3(C)CC[C@H](NC(=O)c4cncnc4)[C@@H](C)[C@@H]3[C@H]2O)CC1", "note": "(stereo not given in full)", "Potency": "inconclusive: 6.31 µM [inhibitor, single point]"},
      {"smiles": "Cc1ccc(C(=O)N2CCC3(CC2)c2nccn2-c2ccccc2CN3CC(C)C)cc1F", "Potency": "inconclusive: 0.891 µM [inhibitor, partial curve, poor fit]"},
      {"smiles": "CN(Cc1cccc2cnccc12)C(=O)C(c1ccccc1F)N(C)C", "note": "(stereo not given)", "Potency": "inconclusive: 1.58 µM [inhibitor, partial curve, poor fit]"},
      {"smiles": "COc1ccc(-c2nc3c(c(-c4ccccc4)n2)CN(C(=O)c2ccccc2)CC3)cc1", "Potency": "inconclusive: 11.2 µM [inhibitor, single point]"},
      {"smiles": "CCCS(=O)(=O)N1CCc2nc(N3CCN(C)CC3)sc2C1", "Potency": "inconclusive: 1.12 µM [inhibitor, partial curve, poor fit]"},
      {"smiles": "CN(C)c1ccc(C(=O)N2CCCC(n3cc(-c4nc(-c5ccccc5)no4)nn3)C2)cc1", "note": "(stereo not given)", "Potency": "inconclusive: 2 µM [inhibitor, partial curve, poor fit]"},
      {"smiles": "COc1ccc(C(=O)N2CCOC3(CCN(C(=O)C(N)Cc4ccccc4)CC3)C2)cc1", "note": "(stereo not given)", "Potency": "inconclusive: 8.91 µM [inhibitor, partial curve, poor fit]"},
      {"smiles": "Cc1ccccc1NCc1cccn1-c1nnc(N2CCC(C)CC2)s1", "Potency": "inconclusive: 17.8 µM [inhibitor, single point]"},
      {"smiles": "CCOC(=O)C1=C(CN2CCN(c3ccccc3F)CC2)NC(=O)NC1c1ccc(Cl)cc1", "note": "(stereo not given)", "Potency": "inconclusive: 11.2 µM [inhibitor, single point]"},
      {"smiles": "Cc1cc(C)c(CNC(=O)C2CCCN(c3cnn(Cc4ccccc4)c(=O)c3)C2)c(C)c1", "note": "(stereo not given)", "Potency": "inactive"},
      {"smiles": "COc1ccc(C(=O)Nc2ccc(-c3nnc4n3CCCC4)cc2)cc1F", "Potency": "inconclusive: 1.58 µM [inhibitor, full curve, poor fit]"},
      {"smiles": "CCCn1ccc2sc(C)c(C(=O)NCc3cc(F)ccc3F)c2c1=O", "Potency": "inactive"},
      {"smiles": "CC(=O)NC[C@H]1CCN(Cc2ccc3c(c2)CCO3)C[C@H]1N(C)C", "Potency": "inactive"},
      {"smiles": "COc1cc2c(cc1OC)C(CNC(=O)CC(C)C)N(C(=O)Nc1ccccc1)CC2", "note": "(stereo not given)", "Potency": "inconclusive: 1.41 µM [inhibitor, partial curve]"},
      {"smiles": "O=C1Nc2ccccc2CC12CCN(Cc1cccs1)C2", "note": "(stereo not given)", "Potency": "inconclusive: 2.51 µM [inhibitor, partial curve]"},
      {"smiles": "COc1ccccc1N1CCN(C(=O)CSc2n[nH]c(-c3ccccc3)n2)CC1", "Potency": "inactive"},
      {"smiles": "O=C1CN(Cc2cc3n(n2)CCCNC3)CCN1Cc1ccc2c(c1)OCO2", "Potency": "inactive"},
      {"smiles": "CN1CCC(N2CCN(C(=O)CCc3ccccc3)CC2)C1=O", "note": "(stereo not given)", "Potency": "inactive"},
      {"smiles": "O=C(NCc1ccc2c(c1)OCO2)c1csc(N2CCN(c3ccc(F)cc3)CC2)n1", "Potency": "inactive"},
      {"smiles": "CC(C)CCN1CC2(Cc3ccccc3C(=O)N2)C1", "activity, negative = inhibition": "inconclusive: -94.7% [inhibitor] [at 44.1 µM]"},
      {"smiles": "Fc1ccc2c(c1)nc1n2[C@@H](CNCc2ccccc2)COC1", "Potency": "inconclusive: 11.2 µM [inhibitor, partial curve, poor fit]"},
      {"smiles": "O=C1NCCCCCN(C(=O)CC2CCCC2)[C@@H]2C[C@@H](C(=O)N3CCc4ccccc4C3)C[C@H]12", "Potency": "inconclusive: 1 µM [inhibitor, full curve]"},
      {"smiles": "Cc1c(-c2ccccc2F)[nH]c2ccc(CNC(=O)CCc3cc(=O)[nH]o3)cc12", "Potency": "inactive"},
      {"smiles": "Cc1ccc(CNC(=O)C2CCN(S(=O)(=O)c3cc(-c4noc(C)n4)ccc3C)CC2)cc1", "Potency": "inconclusive: 12.6 µM [inhibitor, partial curve, poor fit]"},
      {"smiles": "Fc1ccc(Nc2cc3c(cn2)CN(Cc2ccccc2)CCN3)cc1", "Potency": "inconclusive: 5.62 µM [inhibitor, single point]"},
      {"smiles": "COc1ccc(NC(=O)CC2CCCCN(Cc3ccccc3)C2=O)c(C)c1", "note": "(stereo not given)", "Potency": "inconclusive: 17.8 µM [inhibitor, single point]"},
      {"smiles": "C=C(CC)CN1CCCC12Cc1ccccc1CNC2=O", "note": "(stereo not given)", "Potency": "inconclusive: 11.2 µM [inhibitor, single point]"},
      {"smiles": "COC[C@@H]1CN(C(=O)CCc2ccc(OC)cc2)C[C@H]1c1ccncc1", "Potency": "inconclusive: 10 µM [inhibitor, single point]"},
      {"smiles": "CC(C)C(=O)N1CCC2(CC1)N(c1ccccc1)C(=O)CS2(=O)=O", "Potency": "inactive"},
      {"smiles": "COc1ccc(CN(Cc2ccco2)c2cnc(S(C)(=O)=O)nc2C(=O)Nc2ccc(F)cc2)cc1", "Potency": "inconclusive: 12.6 µM [inhibitor, single point]"},
      {"smiles": "CCN(CC)C(=O)[C@@H]1[C@H](c2cc(OC)c(OC)c(OC)c2)c2cc3c(cc2[C@H](O)[C@H]1CO)OCO3", "Potency": "inconclusive: 10 µM [inhibitor, single point]"}
    ]}
  ]
}
